Laboratory results reported in publication PMC12759081, “S-phase PARylation of microprotein RSMC enhances the function of Sororin in sister chromatid cohesion” (The EMBO Journal, 2025).

Target: T1, 6×His-Flag-Sororin (human, UniProt Q96FF9)
T1 construct: Sororin (CDCA5), Flag-Sororin cloned into pET28a; primers run from the start codon to the stop codon; also called 6×His-Flag-tagged Sororin; 6×His-Flag-Sororin WT; source: E. coli BL21 (DE3), purified (Ni2+ Sepharose)
Assay: pull-down; 1 μg 6×His-Flag-Sororin immobilised on anti-Flag M2 agarose, 1 μg GST-RSMC, its mutants or GST added; 50 mM Tris pH 8.0, 150 mM NaCl, 0.05% Triton X-100, 4 °C 2 h; SDS-PAGE and Coomassie staining
Conditions: both partners purified

Sequence of 6×His-Flag-Sororin (Q96FF9 whole entry): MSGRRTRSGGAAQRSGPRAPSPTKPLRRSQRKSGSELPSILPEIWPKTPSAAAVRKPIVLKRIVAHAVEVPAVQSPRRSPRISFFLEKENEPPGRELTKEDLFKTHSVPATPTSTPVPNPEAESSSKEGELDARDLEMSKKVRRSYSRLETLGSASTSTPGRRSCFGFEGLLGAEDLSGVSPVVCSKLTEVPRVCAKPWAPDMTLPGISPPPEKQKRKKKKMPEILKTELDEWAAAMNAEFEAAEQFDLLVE

binding result: binds
B1: GST-RSMC-10A (natural protein, human, UniProt E9PRG8, looked up)
chain: MGAPGGKINRPRTELKKKLFKRRRVLNREAALAHAVVGAVIDQGLITRHHLKKRASSARANITLAGKKRRKLLQQIRLAQKEKTAMAVAAPSKPARTAEPQLKRQKKTKAPQAVAMKDLEDES
notes: RSMC (C11ORF98-encoded microprotein) with ten alanine substitutions; source: bacterial expression (pGEX-6p-1, IPTG), purified (Glutathione Sepharose 4B)
